Assay results: patent US11014902B2, “MYC G-quadruplex stabilizing small molecules and their use” (The United States of America, as represented by the …, priority 2015, dated 2021)

System: c-MYC G4-forming oligonucleotide Pu22
Assay: CD-thermal melt assay
Settings: equimolar compound and c-MYC G4 oligonucleotide; ellipticity at 262 nm; average of 4 trials ± standard deviation
Protocol: To assess the ability of Compound 1 to bind to the c-MYC G4 in solution, a CD-based thermal melt experiment was employed. […] Next, molecular ellipticity was monitored at 262 nm as a function of temperature in order to measure the melting temperature (Tm). Finally, a sample containing equimolar concentrations of Compound 1 and the c-MYC G4 oligonucleotide was evaluated in the same experiment. Molecules that productively bind to the G4-DNA stabilize the structure and therefore increase its Tm (Murat, et al., Chemical Society reviews 2011, 40, 5293). In the presence of Compound 1, the Tm of the G4-DNA increased by 2.1 (±0.5) ° C. (FIG. 2B).
Thermal stability of the c-MYC G4-forming oligonucleotide Pu22 ([…], SEQ ID NO: 2) in the absence and presence of compounds was recorded on an Aviv Biomedical Inc. Model 420 Circular Dichroism Spectrometer. The c-MYC G-quadruplex was diluted to 50 μM in 10 mM Tris buffer (pH 7.5, containing 100 mM KCl), heated to 95° C. for 5 min, and allowed to cool to room temperature. […] Molecular ellipticity as a function of temperature was used to calculate a Tm (the temperature at which 50% of the formed higher order DNA structure was melted) for each condition using GraphPad Prism 6 software and a nonlinear regression model with a variable slope. ΔTm values were calculated as Tm(+compound)−Tm(control).

Cc1ccc(NC(=O)c2c(C)oc3ccc(O)c(CN4CCCCCC4)c23)cc1 [Compound 1]
increase of Tm of the G4-DNA: 2.1 (±0.5) ° C.
